{"source": "PubChem BioAssay AID624296", "about": "(National Center for Advancing Translational Sciences (NCATS), 2012)", "note": "The whole screen tested about 350,000 compounds, of which about 9,900 (2.8%) were called active. Inconclusive results, whose numbers are uncertain, are shown with a selection of clear calls. Calls follow the shape of the dose curve; as a rule, active = well fitted activation curve with a large enough effect; inconclusive = small, poorly fitted or top-dose-only effect; inactive = no such curve, though single readings can be large or run the other way. No potency is given beside an inconclusive call; the fits are too rough. Potency is read from the fitted curve at half-maximal effect; tags tell the direction and shape of the fitted curve."}
{"experiment": "A quantitative high throughput screen for small molecules that induce DNA re-replication in MCF 10a normal breast cells; also: nearly all actives have a fitted effect of over 50% in size; as to activity, positive = re-replication: % of control where 0% means no effect.", "settings": "MCF 10A DNA re-replication, Hoechst nuclear intensity, 48 h; activity, positive = re-replication: at 46.1 µM (top of the series)"}
{"smiles": "CCOc1cc2c3c(c1)C1(C(=O)N3C(C)(C)CC2C)C(C#N)=C(N)N2C(=C1C#N)Nc1ccccc12", "note": "(centres undefined)", "Potency": "active: 16.4 µM"}
{"smiles": "CC(=O)N1N=C(c2c(-c3ccccc3)c3cc(C)ccc3[nH]c2=O)CC1c1ccco1", "note": "(centres undefined)", "Potency": "inconclusive [activator, partial curve, poor fit]"}
{"smiles": "COc1ccc2sc(-c3ccc(N(C)C)cc3)c(C#CCCO)c2c1", "activity, positive = re-replication": "inconclusive: 267% [activator]"}
{"smiles": "CC(C)c1ccc(OCc2ccc(C(=O)N3CCN(c4ccccn4)CC3)cc2)cc1", "Potency": "active: 23.1 µM"}
{"smiles": "CCOc1ccccc1NC(=O)CSc1nc2nc(-c3cccs3)cc(C(F)(F)F)c2c(=O)[nH]1", "Potency": "active: 16.4 µM"}
{"smiles": "CCCC(=O)N(c1ccc2oc(=O)sc2c1)S(=O)(=O)c1cccs1", "Potency": "inconclusive [activator, single point]"}
{"smiles": "CC(=O)Nc1cccc(C(=O)Nc2ccccc2N2CCOCC2)c1", "Potency": "inconclusive [activator, single point]"}
{"smiles": "CCc1ccc(NC(=O)CSc2nc3ccccc3c(=O)n2CCCC(=O)NCCCN2CCOCC2)cc1", "Potency": "inconclusive [activator, single point]"}
{"smiles": "COc1ccc2cc(CN(CCCN3CCOCC3)Cc3nnnn3C3CCCC3)c(=O)[nH]c2c1", "Potency": "inconclusive [activator, single point]"}
{"smiles": "Cc1[nH]c(-c2ccc(F)cc2)cc1C(=O)N1CCN(c2cccc(Cl)c2)CC1", "Potency": "active: 9.2 µM"}
{"smiles": "COc1cccc(S(=O)(=O)NCc2ccc(C(=O)Nc3ccc(Cl)c(Cl)c3)cc2)c1", "Potency": "inconclusive [activator, single point]"}
{"smiles": "O=C(O)c1cccc(-c2ccc(/C=N/Nc3nn[nH]n3)o2)c1", "Potency": "inactive"}
{"smiles": "CC(=O)Nc1cccc(NC(=O)Cc2cccs2)c1", "Potency": "inactive"}
{"smiles": "COc1cccc(OCC(=O)O/N=C(\\N)c2ccncc2)c1", "Potency": "inactive"}
{"smiles": "Cc1ccc(Sc2nc(C)c([N+](=O)[O-])c(C)c2C#N)cc1", "Potency": "inconclusive [activator, single point]"}
{"smiles": "Cn1c(CCNC(=O)C2CCCCC2)nc2cc(NC(=O)c3cccs3)ccc21", "Potency": "inconclusive [activator, partial curve, poor fit]"}
{"smiles": "C=CCNC(=S)N/N=C(\\C)c1cccc(OC)c1", "Potency": "inactive"}
{"smiles": "O=C1C=C(c2ccc3c(c2)OCO3)C[C@@H](c2ccc(Cl)cc2)C1", "Potency": "inconclusive [activator, full curve, poor fit]"}
{"smiles": "CC(=O)N1CC(=O)N=C1SCC(=O)Nc1nc(-c2ccccc2)c(-c2ccccc2)s1", "Potency": "active: 20.6 µM"}
